Experimental data from PubChem BioAssay AID504466 (National Center for Advancing Translational Sciences (NCATS), 2011).
Screen size: about 330,000 compounds; about 4,200 (1.3%) were called active. The inconclusive results got no clear call from the source; some entries with a clear call stand among them for comparison. The call rests on the fitted dose curve; in most records, active means well fitted activation curve with a large enough effect; inconclusive means small, poorly fitted or top-dose-only effect; inactive means no such curve, though single readings can be large or run the other way. Potencies beside an inconclusive call are fits to weak or partial responses and may not hold up.

Assay: qHTS screen for small molecules that induce genotoxicity in human embryonic kidney (HEK293T) cells expressing luciferase-tagged ELG1; further: nearly all actives have a fitted effect of over 60% in size; on activity change, positive = activation: % of control where 0% means no effect
Details: HEK293T ELG1-luciferase reporter, luminescence, 16 h; series mostly up to 46 µM; activity change, positive = activation: at the top concentration
Method in brief: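 Cells (2,000/well) expressing the ELG1-luciferase fusion are dosed by pin tool and kept 16 hr at 37 °C, 5% CO2. Signal comes from ONE-Glo luciferase reagent after 30 min at room temperature.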
Potency means the concentration at half of the fitted maximal effect; tags describe the fitted curve by direction and shape.

Structure (SMILES) | activity change, positive = activation | Potency
CCN1CCN(C(=O)CCc2ccc(S(=O)(=O)NCCc3ccccc3)cc2)CC1 | inactive: 0.782% | –
CC(C)(C)c1ccc(O)c(/C=N\O)c1 | – | inconclusive: 16.4 µM [activator, single point]
COc1ccccc1NC(=O)NCCCl | inactive: -0.0424% | –
COC(=O)Cc1ccc(NC(=O)c2ccc(C)c(C)c2)cc1 | – | active: 5.17 µM
CCOc1ccc(/C=C2\CCc3ccccc3C2=O)cc1 | – | inconclusive: 2.91 µM [activator, partial curve]
O=C(CCS(=O)(=O)c1ccccc1)Nc1ccc(-c2nc3ccccc3s2)cc1 | – | inconclusive: 1.64 µM [activator, partial curve]
Cc1csc(NC(=O)c2ccc(COc3ccccc3)o2)n1 | inactive: 1.46% | –
N#Cc1ccccc1NC(=O)c1cccc(COc2ccc(Cl)cc2Cl)c1 | – | active: 0.461 µM
COCCn1c(C)cc(/C=C(\C#N)C(=O)OCC(=O)Nc2ccc(S(N)(=O)=O)cc2)c1C | inactive: 7.92% | –
Nc1ccccc1C(=O)N=Nc1[nH]c(N)c2ccccc12 | – | inconclusive: 18.4 µM [activator, partial curve]
CCC(Oc1ccccc1)C(=O)Nc1ccccn1 (stereo not drawn) | – | inconclusive: 20.6 µM [activator, single point]
Cc1cc(C(=O)Nc2nc3ccc(Cl)cc3s2)nn1C | – | inconclusive: 2.31 µM [activator, full curve]
COc1ccc(Cc2nc(-c3ccc(Cl)cc3)no2)cc1 | – | inconclusive: 23.1 µM [activator, single point]
CCCn1c(=O)c(-c2nc3ccccc3[nH]2)c(O)c2ccccc21 | – | inconclusive: 32.6 µM [activator, partial curve, poor fit]
COC(=O)C1=C(C)N(Cc2ccc(C)cc2)C(=O)/C1=C\c1cc(OC)c(OC)c(OC)c1 | – | inconclusive: 25.9 µM [activator, partial curve, poor fit]
CN(C)c1ccc(-c2noc(-c3ccccc3O)n2)cc1 | – | inconclusive: 3.26 µM [activator, single point]
CC(=O)c1c(C)[nH]c(C(=O)Nc2ccc(C)cn2)c1C | – | inconclusive: 0.259 µM [activator, partial curve, poor fit]
O=C(O)c1ccc(N/N=C/c2ccc3nccnc3c2)cc1 | – | inconclusive: 0.0651 µM [activator, partial curve, poor fit]
COc1cccc(NC(=O)C2CCN(S(=O)(=O)c3ccc4[nH]c(=O)oc4c3)CC2)c1 | inactive: 6.85% | –
CCc1ccc(NC(=O)NCCCN2CCCC2=O)cc1 | – | inconclusive: 23.1 µM [activator, partial curve, poor fit]
CC1=C([N+](=O)[O-])C(c2cccc(Br)c2)C2=C(N1)c1ccccc1C2=O (stereo not drawn) | – | inconclusive: 1.46 µM [activator, partial curve]
CCN(CC)c1ccc(CN2CCC(C(=O)NCc3ccc(C)cc3)CC2)cc1 | inactive: 3.41% | –
CCN(CC)c1ccc(CN(C(=O)c2cccs2)C2CCS(=O)(=O)C2)cc1 (stereo not drawn) | inactive: 1.88% | –
O=C(/C=C/c1ccco1)NC1=NCCS1 | – | active: 9.2 µM
CCc1c(-c2ccccc2)nc2nc(C)c(C)nn12 | inactive: 13% | –

Structure (SMILES) | activity change, positive = activation | Potency
O=C(Cc1cccs1)NCc1cccc(Br)c1 | – | inconclusive: 20.6 µM [activator, partial curve, poor fit]
CC(=O)Oc1ccc(C(=O)Nc2cc(C)on2)cc1 | – | inconclusive: 20.6 µM [activator, partial curve, poor fit]
CCC1(CC)Nc2ccccc2C(=O)N1c1ccc(OC)cc1 | – | inconclusive: 10.3 µM [activator, partial curve]
CCc1nnc(NC(=O)c2ccc(OC)cc2OC)s1 | – | inconclusive: 0.651 µM [activator, full curve, poor fit]
Cc1ccsc1/C=N/NC(=O)c1cccs1 | – | inconclusive: 25.9 µM [activator, partial curve, poor fit]
CCc1ccc(-c2cc(C(F)(F)F)n3nc(C(=O)Nc4cnn(Cc5ccc(C)cc5)c4)cc3n2)s1 | – | inconclusive: 29.1 µM [activator, single point]
COc1ccccc1OCCNC(=O)c1ccc2c(c1)OCCO2 | – | inconclusive: 5.8 µM [activator, partial curve]
COc1ccc(CN2C(=NC(=O)C3CCCO3)SC3CS(=O)(=O)CC32)cc1 (stereo not drawn) | inactive: 2.69% | –
Cc1ccc(C(=O)NC(=S)Nc2cccc(-c3nc4ccccc4s3)c2)cc1 | – | inconclusive: 29.1 µM [activator, partial curve, poor fit]
COc1ccc(-c2nnc(SCc3ccccc3)n2N)cc1 | – | inconclusive: 16.4 µM [activator, partial curve, poor fit]
Cc1ccc(C2=NN=C(NC(=O)C(F)(F)F)SC2)cc1 | – | inconclusive: 4.11 µM [activator, full curve]
COc1ccc(Cc2nnc(-c3ccc(F)cc3)o2)cc1OC | – | inconclusive: 23.1 µM [activator, partial curve]
Cc1ccc(C(=O)Nc2ccccc2OC(F)F)cc1 | – | inconclusive: 18.4 µM [activator, partial curve, poor fit]
Nc1nc(C2CCCCC2)cs1 | – | inconclusive: 25.9 µM [activator, partial curve, poor fit]
Cc1cc(-c2c(C)[nH]n(-c3ccc(Cl)cc3)c2=O)n(-c2ccc(Cl)cc2)n1 | inactive: -7.09% | –
COCc1cc(C)nc(SCC(=O)Nc2ccc(C)c(C)c2)c1C#N | – | inconclusive: 20.6 µM [activator, partial curve, poor fit]
O=C(COc1cc2oc(=O)cc(-c3ccccc3)c2cc1Cl)NCCN1CCOCC1 | inactive: -3.21% | –
COc1ccccc1-n1cnc2cc(NC(=O)c3ccco3)ccc21 | – | inconclusive: 14.1 µM [activator, partial curve, poor fit]
COC(=O)CCC(=O)Nc1ccc(N=Nc2ccccc2)cc1 | – | inconclusive: 23.1 µM [activator, single point]
CC(C)(C)c1cc(NCCCn2ccnc2)n2ncc(-c3ccc(Cl)cc3)c2n1 | inactive: -4.21% | –
CCOc1ccc(NC(=S)N2CCCC2)cc1 | inactive: 25.9% | –
Cn1c(=O)cc(SCC(=O)N2CCN(C(=O)c3ccco3)CC2)c2ccccc21 | – | inconclusive: 29.1 µM [activator, single point]
Cc1onc(-c2ccccc2Cl)c1C(=O)NC1CCCCCC1 | inactive: -1.08% | –
Cc1cc(C)cc(OCc2ccc(C(=O)O)o2)c1 | – | inconclusive: 29.1 µM [activator, partial curve, poor fit]
O=C(Nc1ccc(F)cc1F)c1cc(-c2ccc3c(c2)OCO3)on1 | inactive: 20.2% | –

Structure (SMILES) | activity change, positive = activation | Potency
CCCCCOc1ccc(NC(=O)CSc2cccc3cccnc23)cc1 | inactive: 5.37% | –
COc1ccc(OCc2cc(C(=O)N3CCN(CC4CC4)CC3)no2)c(Cl)c1 | inactive: 4.57% [at 9.26 µM] | –
O=C(CN1CCN(S(=O)(=O)c2ccccc2)CC1)Nc1ccc(Cl)c(Cl)c1 | inactive: -7.1% | –
O=C(Nc1nnc(-c2cccs2)s1)C1CC1 | – | inconclusive: 18.3 µM [activator, partial curve, poor fit]
O=C(c1cccc(S(=O)(=O)N2CCCC2)c1)N1CCCc2ccccc21 | inactive: -9.76% | –
COc1ccc(CNC(=O)CNC(=O)c2ccc(Br)o2)cc1OC | inactive: 0.408% | –
COC(=O)c1ccc(COc2cccc(OC)c2)o1 | – | active: 23.1 µM
Cc1ccc(-c2nc3cc(Cl)ccc3o2)cc1 | – | inconclusive: 0.891 µM [activator, partial curve, poor fit]
CC1=Nc2cc(C(=O)NCc3ccco3)ccc2Sc2ccc(C)cc21 | – | inconclusive: 5.8 µM [activator, full curve, poor fit]
O=C(c1cccs1)N1CCN=C1SCc1ccc(F)cc1 | inactive: -7.1% | –
CCOC(=O)N1CCN(S(=O)(=O)c2ccc(OC)c(Br)c2)CC1 | inactive: 0.668% | –
O=C(NC(=S)Nc1ccc(O)cc1)c1ccccc1Cl | – | inconclusive: 18.3 µM [activator, partial curve, poor fit]
COc1cccc(-c2cc(C(=O)Nc3cc(C)on3)no2)c1 | – | inconclusive: 13 µM [activator, partial curve, poor fit]
CC(=O)N(C)c1ccc(NC(=O)c2cnn(C)c2)cc1 | – | inconclusive: 29.1 µM [activator, partial curve, poor fit]
O=C(OCC(=O)N1CCN(c2ccccc2)CC1)c1ccccc1[N+](=O)[O-] | – | active: 5.17 µM
O=C(OCc1csc(-c2ccccc2)n1)c1ccc(O)cc1 | – | inconclusive: 23.1 µM [activator, single point]
COc1cc(C)nc(N2CCCC(C(=O)NC3CCC(C)CC3)C2)n1 (stereo not drawn) | – | inconclusive: 4.11 µM [activator, full curve, poor fit]
Cc1ccc(C(=O)Nc2cccc(-c3ccc(N4CCOCC4)nn3)c2)cc1C | – | inconclusive: 4.61 µM [activator, single point]
O=C(Nc1cc2c(cc1Cl)OCCCO2)c1ccco1 | – | inconclusive: 14.6 µM [activator, partial curve]
CCC(=O)Nc1nc2ccc(NC(C)=O)cc2s1 | – | inconclusive: 23.1 µM [activator, partial curve, poor fit]
COC(=O)c1cc(S(=O)(=O)Nc2cc(S(=O)(=O)N(C)C)ccc2C)oc1C | inactive: -1.33% | –
Cc1nc2ccc(C(=O)Nc3ccccc3Cl)cc2s1 | – | inconclusive: 16.4 µM [activator, partial curve]
O=C(OCc1ccc(COC(=O)c2cccnc2Cl)cc1)c1cccnc1Cl | inactive: -3.46% | –
